Hit rate of the full screen: of about 310,000 compounds, about 14,000 (4.5%) showed an effect of 50% or more. Effects have a minus sign here. This is one part of the list.
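Note: peak tail current of the secondary pulse compared with the same well before compound.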

The target of this assay is human ether-à-go-go-related gene (hERG) potassium channel (human, UniProt Q12809). Description: primary screen, population patch clamp on CHO cells stably expressing hERG.
human ether-à-go-go-related gene (hERG) potassium channel, sequence (Q12809 whole entry, looked up): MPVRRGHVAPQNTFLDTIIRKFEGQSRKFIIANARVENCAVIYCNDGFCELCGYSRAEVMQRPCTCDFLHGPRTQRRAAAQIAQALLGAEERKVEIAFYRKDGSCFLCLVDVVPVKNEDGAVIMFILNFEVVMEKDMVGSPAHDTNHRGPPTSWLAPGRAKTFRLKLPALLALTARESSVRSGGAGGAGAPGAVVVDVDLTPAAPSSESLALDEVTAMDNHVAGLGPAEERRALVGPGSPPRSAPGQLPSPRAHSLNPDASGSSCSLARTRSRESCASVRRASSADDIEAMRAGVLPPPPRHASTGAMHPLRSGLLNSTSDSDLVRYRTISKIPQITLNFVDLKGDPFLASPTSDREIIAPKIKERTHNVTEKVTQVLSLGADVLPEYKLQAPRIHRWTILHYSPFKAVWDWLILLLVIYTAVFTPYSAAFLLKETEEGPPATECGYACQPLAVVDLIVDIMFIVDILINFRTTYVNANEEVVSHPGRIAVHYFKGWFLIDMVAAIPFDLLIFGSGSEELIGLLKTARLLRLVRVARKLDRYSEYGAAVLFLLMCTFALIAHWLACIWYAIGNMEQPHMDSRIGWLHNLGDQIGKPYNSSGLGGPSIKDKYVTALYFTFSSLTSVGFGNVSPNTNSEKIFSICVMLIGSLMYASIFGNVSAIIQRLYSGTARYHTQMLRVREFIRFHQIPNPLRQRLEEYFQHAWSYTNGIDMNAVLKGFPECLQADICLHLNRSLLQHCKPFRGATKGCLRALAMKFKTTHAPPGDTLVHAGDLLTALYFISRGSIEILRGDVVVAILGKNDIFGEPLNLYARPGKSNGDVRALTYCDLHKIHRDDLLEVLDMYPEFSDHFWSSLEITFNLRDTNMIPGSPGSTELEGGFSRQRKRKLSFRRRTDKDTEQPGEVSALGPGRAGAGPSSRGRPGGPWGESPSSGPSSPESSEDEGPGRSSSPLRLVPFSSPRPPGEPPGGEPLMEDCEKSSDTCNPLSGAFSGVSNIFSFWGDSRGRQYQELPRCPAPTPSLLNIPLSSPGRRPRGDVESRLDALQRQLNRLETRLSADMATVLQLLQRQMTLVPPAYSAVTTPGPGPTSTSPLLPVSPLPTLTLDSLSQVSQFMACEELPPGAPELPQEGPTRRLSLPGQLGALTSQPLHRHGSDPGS
Regarding `COc1ccc(-n2c(C)cc(C(=O)CCl)c2C)cc1`, the “hERG current change (%, negative = inhibition) at 10uM” value was -9.2%. The value for `Cc1c(C(=O)N2CCCCC2)c(S(=O)(=O)Nc2ccc(F)cc2F)c(C)n1C` was 21.9%; that for `Fc1ccc(-c2nn3c(C4COc5ccccc5O4)nnc3s2)cc1` (centres unmarked) was 6.78%. As for `COc1c(Cl)ccc(Cl)c1C(=O)NCc1ccco1`, the figure is 3.52%. Consider `CCOc1ccc(NC(=S)NNC(=O)c2ccc(Br)cc2)cc1`, for which the “hERG current change (%, negative = inhibition) at 10uM” value is on record as 14.2%. As for `CCCCn1c(N)c(N(C)C(=O)c2ccc(OCC3CCCO3)cc2)c(=O)[nH]c1=O` (centres unmarked), the figure is 5.48%. For the molecule `O=C(CN(Cc1ccccc1)S(=O)(=O)c1ccc2c(c1)OCCO2)N/N=C/c1cccc(Br)c1`, the “hERG current change (%, negative = inhibition) at 10uM” value was -30%. The value for `O=C(CN1CCN(C(=O)c2cncn2-c2ccc(F)cc2)CC1)Nc1ccccc1C(F)(F)F` was -70%.

Turning to `O=C(NCCCCc1ccccc1)C1CCCC1`, the “hERG current change (%, negative = inhibition) at 10uM” value is recorded as -1.81%.

On to `COc1cc(CN2CCN(c3ccc(C)cc3)CC2)cc([N+](=O)[O-])c1O`, for which the “hERG current change (%, negative = inhibition) at 10uM” value is reported as -15.1%. Turning to `Cc1cc(C)cc(N2CC(O)Cn3c2nc2c3c(=O)[nH]c(=O)n2C)c1` (centres unmarked), the “hERG current change (%, negative = inhibition) at 10uM” value is 9.32%. With `Cn1cc(SCC(=O)NC2CCCCC2)c2ccccc21`, the “hERG current change (%, negative = inhibition) at 10uM” value came out at 3.8%. For the molecule `COc1cccc(NC(=O)Nc2nnc(Cc3ccccc3F)s2)c1`, the “hERG current change (%, negative = inhibition) at 10uM” value is listed as 19.7%. On to `CCc1nc(Nc2ccc3c(c2)OCO3)c2oc3ccccc3c2n1.Cl`, for which the “hERG current change (%, negative = inhibition) at 10uM” value is 8.76%. On to `O=C(CCNC(=O)c1ccc(Br)o1)NCc1ccccn1`, for which the “hERG current change (%, negative = inhibition) at 10uM” value was determined as 2.79%. The value for `Cc1ccccc1C(=O)Oc1cccc2c(O)cccc12` was 14.8%. With `Cc1cc(NC(=O)C(=O)c2cn(C)c3ccccc23)no1`, the “hERG current change (%, negative = inhibition) at 10uM” value is 13.3%. On to `CCOC(=O)CNC(=O)CSc1nnc(Cn2cnc3ccccc32)n1C`, for which the “hERG current change (%, negative = inhibition) at 10uM” value is reported as -0.389%.

Regarding `Cc1sc(NC(=O)c2ccco2)c(C(c2cccnc2)N2CCCC2)c1C` (centres unmarked), the “hERG current change (%, negative = inhibition) at 10uM” value was -8.45%. The value for `O=C(CSC(=S)N1CCOCC1)c1cc2ccccc2oc1=O` was 1.25%; that for `CCOc1ccc(CN(C)C(=O)CNC(=O)c2ccc3ccccc3c2)cc1OC` was -15.6%; that for `CCOC(=O)CCNC(=O)N1CCCC(C(=O)c2cccc(OC(C)C)c2)C1` (centres unmarked) was -10.3%. Regarding `COc1ccc(C2CCCN2CC(O)COc2ccccc2C(C)C)cc1` (centres unmarked), the “hERG current change (%, negative = inhibition) at 10uM” value is -24.3%. Take `O=C(COC(=O)Cc1n[nH]c(=O)c2ccccc12)NNC(=O)c1ccc(Cl)cc1`: the “hERG current change (%, negative = inhibition) at 10uM” value is recorded as -40.2%. As for `CCCCn1c2ccc(F)cc2c2nnc(NN)nc21`, the figure is -44.9%; as for `COc1ccc(CCCc2nnc(SCc3nc4ccccc4c(=O)[nH]3)n2C)cc1`, -27.4%. `COc1ccc(-n2nc(C(=O)NCC(=O)N3CCN(c4ccccn4)CC3)c3ccccc3c2=O)c(OC)c1`: the “hERG current change (%, negative = inhibition) at 10uM” value stood at 5.6%. For the molecule `O=C(Nc1ccccc1F)c1cc(Cl)sc1Cl`, the “hERG current change (%, negative = inhibition) at 10uM” value was 14.7%.

For `O=c1oc(-c2ccccc2NS(=O)(=O)c2ccc3ccccc3c2)nc2ccccc12`, the “hERG current change (%, negative = inhibition) at 10uM” value is reported as 22.9%.

As for `O=C(Nc1ccc(-c2cn3ccsc3n2)cc1)C1COc2ccccc2O1` (centres unmarked), the “hERG current change (%, negative = inhibition) at 10uM” value is on record as 10.8%. As to `COc1ccccc1-c1c(C)nn2c(C)cc(C)nc12`, the “hERG current change (%, negative = inhibition) at 10uM” value is given as -11.4%. As to `C/C(=C\C(=O)c1ccc(Cl)cc1)Nc1ccc(Br)cc1`, the “hERG current change (%, negative = inhibition) at 10uM” value stood at 7.21%. As for `COc1ccccc1NC(=O)C1=C(C)Nc2nnnn2C1c1cc(Br)ccc1OC` (centres unmarked), the figure is -0.22%; as for `O=C1CC(c2ccccc2)CC(O)=C1C=NCc1ccncc1` (centres unmarked), -22.3%; as for `C/C(=N\NC(=O)c1csc(C)c1C)c1ccc(C)s1`, -6.2%. On to `CC1(C)C2([N+](=O)[O-])CN3CC1([N+](=O)[O-])CN(C2)C3C(O)C(O)C(O)CO` (centres unmarked), for which the “hERG current change (%, negative = inhibition) at 10uM” value was 29%. Consider `O=C(NC1(Cc2ccccc2)CCN(CCCc2ccccc2)C1=O)c1ccccc1` (centres unmarked), for which the “hERG current change (%, negative = inhibition) at 10uM” value is -10.5%. On to `CC1=NN(c2ccccc2)C(=O)/C1=C/c1c(O)[nH]c(=O)[nH]c1=O`, for which the “hERG current change (%, negative = inhibition) at 10uM” value turned out to be 7.84%. Turning to `Cn1c(NN=O)nc2ccccc21`, the “hERG current change (%, negative = inhibition) at 10uM” value came out at 15.7%. As for `COCCN1C(=O)c2cc(C(=O)Nc3ccc(C)c(F)c3)ccc2C1Nc1ccc(C)c(F)c1` (centres unmarked), the figure is 1.29%. As for `O=Nc1c2ccc[nH]c-2c2ccc([N+](=O)[O-])cc12`, the figure is 23.2%.

On to `COc1ccc(/C=N/NC(=O)c2ccc(NC(=O)C3CCCCC3)cc2)cc1O`, for which the “hERG current change (%, negative = inhibition) at 10uM” value came out at 24.3%. The value for `NC(=O)C1CCN(C2=C(NS(=O)(=O)c3ccccc3)C(=O)c3ccccc3C2=O)CC1` was -13.9%. As for `N/C(=N\c1nc2c(c(=O)[nH]1)CCCC2)Nc1ccccc1Sc1ccccc1`, the figure is 2%.
